Screen size: about 220,000 compounds; about 16,000 (7.3%) were called active. This list was built around the results that the source calls inconclusive (neither active nor inactive); the mix of calls is not that of the screen. Calls come from the whole dose curve; as a rule, active = well fitted inhibition curve with a large enough effect (not every such curve was filed as active); inconclusive = small, poorly fitted or top-dose-only effect, or another doubt; inactive = no such curve, though single readings can be large or run the other way. Potencies beside an inconclusive call are fits to weak or partial responses and may not hold up.
Target: Aldehyde dehydrogenase 1A1 (Homo sapiens) (UniProt P00352)
Chain of UniProt P00352 (P00352 whole entry, looked up): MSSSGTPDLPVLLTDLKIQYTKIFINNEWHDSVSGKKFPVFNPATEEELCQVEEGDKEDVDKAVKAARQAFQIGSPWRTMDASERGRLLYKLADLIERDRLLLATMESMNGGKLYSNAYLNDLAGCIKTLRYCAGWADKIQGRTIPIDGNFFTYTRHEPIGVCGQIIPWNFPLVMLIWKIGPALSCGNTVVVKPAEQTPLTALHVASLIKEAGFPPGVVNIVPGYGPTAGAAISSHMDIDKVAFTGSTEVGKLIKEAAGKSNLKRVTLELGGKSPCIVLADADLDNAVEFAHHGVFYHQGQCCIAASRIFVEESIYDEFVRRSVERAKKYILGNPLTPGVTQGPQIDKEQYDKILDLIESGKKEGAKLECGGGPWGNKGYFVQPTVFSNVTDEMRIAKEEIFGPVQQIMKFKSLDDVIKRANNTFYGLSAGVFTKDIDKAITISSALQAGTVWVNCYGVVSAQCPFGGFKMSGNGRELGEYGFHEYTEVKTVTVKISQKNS
Experiment: qHTS Assay for Inhibitors of Aldehyde Dehydrogenase 1 (ALDH1A1)
Conditions: Purified ALDH1A1, NADH fluorescence, propionaldehyde substrate; series mostly up to 75.3 µM
Potency is the fitted concentration of half-maximal effect; tags give direction and shape of the fitted curve.

Potency, inconclusive:
O=C(NCc1ccc2c(c1)OCO2)c1ccc2c(=O)n(C3CCCC3)c(=O)[nH]c2c1 20 µM [inhibitor, partial curve], CC(=O)c1cccc(NC(=O)NNC(=O)c2ccc(Cl)cc2Cl)c1 25.1 µM [inhibitor, single point], COC(=O)c1c(C(=O)OC)c(-c2ccc(C)cc2)n2c1CCC2 28.2 µM [inhibitor, single point], COc1cccc(-c2cncnc2N(C)Cc2ccco2)c1 28.2 µM [inhibitor, single point], COc1cc(/C=N/NC(=O)[C@H](Cc2c[nH]c3ccccc23)NC(=O)OCC(C)C)cc([N+](=O)[O-])c1O 39.8 µM [inhibitor, single point], CCN(CC)S(=O)(=O)c1ccc(OC)c(NC(=S)Nc2cc(C)ccc2C)c1 39.8 µM [inhibitor, single point], COc1ccccc1C(=O)Nc1ccc(S(=O)(=O)N2CCCC2)cc1 25.1 µM [inhibitor, partial curve], COc1cc(/C=C(/C#N)C(=O)Nc2ccc(C)cc2)ccc1Oc1nc(Cl)ncc1F 2 µM [inhibitor, full curve, poor fit], O=S(=O)(N=S(N1CCCCC1)N1CCCCC1)c1ccccc1 39.8 µM [inhibitor, single point], CCN1CCN(C(=S)c2ccc(O)cc2)CC1 39.8 µM [inhibitor, single point], COC(=O)c1ccc2c(=O)n(Cc3ccc(C(=O)NCCCN4CCC(C)CC4)cc3)c(=S)[nH]c2c1 23.8 µM [inhibitor, partial curve], COc1ccc(CN2CCn3ncc(C(=O)Nc4cc(C)cc(C)c4)c3C2=O)cc1 22.4 µM [inhibitor, partial curve], Cc1ccsc1C(=O)N/N=C/C=C/c1ccccc1[N+](=O)[O-] 12.6 µM [inhibitor, partial curve], Cc1c2c(n3c(nc4ccccc43)c1C#N)N(CCCN(C)C)CC2 14.1 µM [inhibitor, partial curve], CC1=C(C(=O)OCc2ccccc2)C(c2cccnc2)n2ncnc2N1 (stereo unspecified) 1.12 µM [inhibitor, full curve, poor fit], Cc1cccc(C)c1OCc1nnc(SCC(=O)NCCc2ccccc2)o1 39.8 µM [inhibitor, single point], COCc1cc(C)n(CC(=O)Nc2cc(C)cc(C)c2)c(=O)c1C#N 39.8 µM [inhibitor, single point], CCn1c(SCC(=O)NCC2CCCO2)nnc1-c1ccccc1 (stereo unspecified) 39.8 µM [inhibitor, single point], COc1ccccc1CNCC(=O)Nc1ccc(N2CCOCC2)cc1 35.5 µM [inhibitor, single point], Cn1c2ccccc2c2c(C(=O)N3CCN(c4ccccc4)CC3)cn(C3CCCC3)c(=O)c21 28.2 µM [inhibitor, partial curve], Cc1ccc2cc(C#N)c(N3CCCN(C(=O)C4CCCO4)CC3)nc2c1 (stereo unspecified) 25.1 µM [inhibitor, partial curve], O=C(Nc1ccccc1N1CCCC1)c1ccc(Br)o1 35.5 µM [inhibitor, single point], CC(C)(C)n1ncc2c(=O)n(CC(=O)NCc3ccco3)cnc21 39.8 µM [inhibitor, single point], Cc1cccc(Cn2c(=O)n(-c3ccc(CC(=O)NCc4ccco4)cc3)c(=O)c3sccc32)c1 3.16 µM [inhibitor, full curve], Cc1cc(C)c(/C([O-])=C(/C(=S)Nc2ccc(SC(F)F)cc2)[n+]2ccccc2)cc1C 28.2 µM [inhibitor, single point], CC(NC(=O)c1ccc(Cn2cc([N+](=O)[O-])cn2)o1)c1ccccc1 (stereo unspecified) 20 µM [inhibitor, partial curve], COc1ccc(C(=O)/C=C2\Sc3ccccc3N2C)cc1 1.41 µM [inhibitor, single point], COc1cc2c(cc1OC)CN(C(=O)CSc1nnc(C)s1)CC2 35.5 µM [inhibitor, partial curve], Cc1ccc(O)c(C(=O)c2cnc3c(c2)CN(CCC(C)C)C(=O)N3)c1 22.4 µM [inhibitor, partial curve], Cc1nc2cc3ccccc3cc2n1C 39.8 µM [inhibitor, single point], Cc1cc(=O)oc2cc(OCC(=O)N3CCOCC3)ccc12 22.4 µM [inhibitor, partial curve], O=c1[nH]c(NCCO)nc2ncn(Cc3ccccc3)c12 28.2 µM [inhibitor, single point], CCCCCOc1ccc(N2C(=O)CC(N(O)c3ccccc3)C2=O)cc1 (stereo unspecified) 31.6 µM [inhibitor, single point], Cc1cc2nc(-c3ccc(SCC(=O)N4CCOCC4)nc3)[nH]c2cc1C 22.4 µM [inhibitor, partial curve], CCCCn1c(=O)n(C)c(=O)c2c3c(sc21)COC(C)(C)C3 35.5 µM [inhibitor, partial curve], N=c1c2c(-c3ccccc3)c(-c3ccccc3)n(Cc3ccco3)c2ncn1CCCO 28.2 µM [inhibitor, partial curve], Cc1ccc2[nH]c(=O)c(CN(C)C(=O)c3ccccn3)cc2c1 39.8 µM [inhibitor, single point], Cc1occc1C(=O)Nc1sc2c(c1C(N)=O)CCC(C(C)(C)C)C2 (stereo unspecified) 28.2 µM [inhibitor, partial curve], Cc1ccc2sc(NC(=O)CSc3nc(C)cc(C)c3C#N)nc2c1 12.6 µM [inhibitor, partial curve], Cn1cc(-c2nc3cnc(N4CCNCC4)nc3n(CCc3ccccc3)c2=O)c2ccccc21 28.2 µM [inhibitor, single point], Cc1cc(=O)n2[nH]c(-c3sccc3-n3c(C)ccc3C)cc2n1 28.2 µM [inhibitor, single point], c1ccc2c(-c3cn4ccccc4n3)c[nH]c2c1 28.2 µM [inhibitor, partial curve], O=C(Cc1ccccc1)Nc1ccc(N2CCCC2)cc1 11.2 µM [inhibitor, partial curve], CCc1sc(N)nc1-c1ccccc1 35.5 µM [inhibitor, single point], COc1cc(C2CC(=O)Oc3ccc(O)cc32)cc(OC)c1OC (stereo unspecified) 56.2 µM [inhibitor, single point], O=C(COc1ccc(Cl)cc1[N+](=O)[O-])NC1CCCCC1 20 µM [inhibitor, single point]

Potency, inactive:
COc1cc2nc(Cl)nc(N3CCN(C)CC3)c2cc1OC, COc1ccc(N2CCN(C(CNC(=O)OCc3ccccc3)c3ccco3)CC2)cc1 (stereo unspecified), CC(C)COc1ccc(CN=C(N)N=C(N)N)cc1Cl, CC(C)(C)NC(=O)Cn1c(SCC(=O)NC2CCCCC2)nc2ccccc21, Cc1cccc(NC(=S)NCc2cccs2)c1, CC(=O)c1c(N(C)C)ccnc1C(F)(F)F, COc1ccc(C(=O)/C=C/c2ccccc2)c(O)c1, O=C(COc1ncnc2sccc12)N1CCN(C(=O)c2ccco2)CC1, Cc1csc2c(C#N)c(=O)c3c(n12)CCC3, O=C(N/N=C/c1c[nH]c2ccccc12)c1cccc([N+](=O)[O-])c1, Cc1ccc(OCCOC(=O)Cn2nc(C)c([N+](=O)[O-])c2C)cc1, O=C1C2CCCN2C(c2ccccc2)N1c1nccs1 (stereo unspecified), CC1(c2ccccc2)NC(=O)N(CC(=O)Nc2ccc([N+](=O)[O-])cc2)C1=O (stereo unspecified), Cc1ccc(S(=O)(=O)N2CCN(C(=O)COc3ccc(C)nc3[N+](=O)[O-])CC2)c(C)c1

Potency, active:
Cc1ccc(CCc2nnc(SCC(=O)Nc3cc(Cl)ccc3Cl)n2-c2ccccc2)o1 25.1 µM, CCOc1ccc2nc(SC3CC(=O)N(c4ccccc4)C3=O)sc2c1 (stereo unspecified) 14.1 µM, CCOCC(=O)N1CCN(c2ccc(F)cc2)CC1 2.24 µM, Cc1ccc(NC(=S)Nc2cc(C(=O)O)ccc2N2CC3CC(C2)c2cccc(=O)n2C3)cc1C (stereo unspecified) 28.2 µM, Oc1ccc2ccccc2c1C=Nc1ccc(N2CCOCC2)cc1 4.47 µM, Fc1cc(F)c(C2SCCN2C(=S)Nc2cccc(C(F)(F)F)c2)c(F)c1 (stereo unspecified) 14.1 µM, CCC(O)CNC(=O)NC(=C(Cl)Cl)c1ccc(C)c(F)c1 (stereo unspecified) 3.55 µM, Clc1ccccc1Cn1nnc2c(N3CCOCC3)nc(C3CC3)nc21 20 µM, Cc1ccc(NC(=O)NCCN2C(=O)C3C4C=CC(C4)C3C2=O)cc1 (stereo unspecified) 10 µM, CC12CCC(CC1=O)C2(C)C (stereo unspecified) 7.08 µM, CN(C)S(=O)(=O)c1cccc(NC(=S)N/N=C/C(=O)c2ccccc2)c1 8.91 µM

From PubChem BioAssay AID1030 (National Center for Advancing Translational Sciences (NCATS), 2008)
